Data: publication PMC4492818
Positions count from the first letter of the chain named. Results are given in words; binding and its absence hold for the method and conditions named. Binding seen in cells or lysates may run through a third protein. Some results given as binding are weak or reduced against the parent protein; the word gives no strength. For part of these data: Where a sequence is shown, tags or fusion partners need not be part of it. Each block holds one binder with its values, some of them ahead of it.

The chains behind the UniProt entries cited, without tags or fusion partners.
UniProt Q13485: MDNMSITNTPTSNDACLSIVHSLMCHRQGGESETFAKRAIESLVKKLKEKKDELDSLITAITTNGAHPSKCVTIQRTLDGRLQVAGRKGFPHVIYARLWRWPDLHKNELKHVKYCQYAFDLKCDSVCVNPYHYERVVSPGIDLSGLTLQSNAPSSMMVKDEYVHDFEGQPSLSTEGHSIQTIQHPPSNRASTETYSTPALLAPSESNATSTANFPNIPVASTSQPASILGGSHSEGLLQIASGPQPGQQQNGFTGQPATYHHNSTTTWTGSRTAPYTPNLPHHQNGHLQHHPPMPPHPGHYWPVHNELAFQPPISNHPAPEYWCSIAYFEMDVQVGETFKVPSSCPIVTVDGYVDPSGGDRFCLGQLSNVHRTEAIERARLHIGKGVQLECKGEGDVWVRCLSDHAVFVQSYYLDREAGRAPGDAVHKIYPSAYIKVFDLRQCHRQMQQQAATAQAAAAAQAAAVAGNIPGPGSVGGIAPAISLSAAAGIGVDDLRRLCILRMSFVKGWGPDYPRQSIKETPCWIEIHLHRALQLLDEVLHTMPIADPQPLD
UniProt Q62406: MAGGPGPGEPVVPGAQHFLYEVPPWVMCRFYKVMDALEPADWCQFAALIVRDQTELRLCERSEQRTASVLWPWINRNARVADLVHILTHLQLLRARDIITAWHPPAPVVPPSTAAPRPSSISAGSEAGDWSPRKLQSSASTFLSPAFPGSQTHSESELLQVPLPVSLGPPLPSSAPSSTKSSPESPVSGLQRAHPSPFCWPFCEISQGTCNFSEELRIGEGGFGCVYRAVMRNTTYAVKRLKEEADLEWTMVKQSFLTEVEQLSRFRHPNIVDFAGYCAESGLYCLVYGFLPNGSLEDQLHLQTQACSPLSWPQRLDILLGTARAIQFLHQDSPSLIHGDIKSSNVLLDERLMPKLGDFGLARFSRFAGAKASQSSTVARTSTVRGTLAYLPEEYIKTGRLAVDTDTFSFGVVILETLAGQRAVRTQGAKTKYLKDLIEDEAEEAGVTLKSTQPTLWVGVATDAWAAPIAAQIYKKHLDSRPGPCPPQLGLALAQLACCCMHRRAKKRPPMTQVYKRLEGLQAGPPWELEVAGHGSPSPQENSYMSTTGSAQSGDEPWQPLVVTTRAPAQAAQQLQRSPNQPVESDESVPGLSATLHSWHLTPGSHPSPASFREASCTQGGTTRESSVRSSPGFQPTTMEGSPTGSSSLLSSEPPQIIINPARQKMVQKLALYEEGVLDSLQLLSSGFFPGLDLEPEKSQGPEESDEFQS

Key:
[1] = molecular target: T1, Pellino-1 (Supplementary Fig S1, cells not stated) (UniProt Q8C669); experiment: co-IP; immunoprecipitation assays with TGF-β1-induced Smad6 (Supplementary Fig S1); cells and antibodies not shown
T1 sequence: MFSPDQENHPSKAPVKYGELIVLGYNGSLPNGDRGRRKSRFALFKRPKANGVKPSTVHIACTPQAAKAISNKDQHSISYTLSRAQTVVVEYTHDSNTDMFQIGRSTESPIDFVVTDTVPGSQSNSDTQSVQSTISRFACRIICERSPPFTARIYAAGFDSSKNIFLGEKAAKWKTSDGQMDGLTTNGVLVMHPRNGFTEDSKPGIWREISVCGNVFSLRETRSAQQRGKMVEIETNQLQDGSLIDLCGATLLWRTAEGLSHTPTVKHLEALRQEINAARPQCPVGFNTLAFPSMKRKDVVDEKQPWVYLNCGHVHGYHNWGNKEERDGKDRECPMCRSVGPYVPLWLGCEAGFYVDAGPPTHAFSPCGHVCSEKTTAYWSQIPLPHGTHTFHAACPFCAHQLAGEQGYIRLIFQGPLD

[2] = molecular target: T2, endogenous Pellino-1 (mouse cells) (mouse (endogenous in RAW264.7 and in primary peritoneal macrophages)) (UniProt Q8C669); experiment: co-IP; as a3: synthetic Smaducin-6 added to primary peritoneal macrophages, loss of endogenous Pellino-1 complexes read by immunoprecipitation; only the binder purified
T2 sequence: T1 sequence

[3] = molecular target: T3, HA-Pellino-1 (full-length Pellino-1) (UniProt Q96FA3); experiment: co-IP; plasmids co-transfected into HEK293 cells; lysates (PBS, 0.5% Triton X-100, 20 mM HEPES pH 7.4, 150 mM NaCl) immunoprecipitated with anti-HA, anti-Myc or the indicated antibodies and protein A/G agarose at 4°C for 12 h; immunoblot with anti-Myc or anti-HA
T3 sequence: T1 sequence with S146N

[4] = molecular target: HA-Smad4 (UniProt Q13485); experiment: as above
[5] = molecular target: endogenous IRAK1 (primary peritoneal macrophages) (mouse (endogenous in primary peritoneal macrophages)) (UniProt Q62406); experiment: co-IP; primary peritoneal macrophages, endogenous proteins, 2 h LPS treatment, with Smaducin-6 or scrambled peptide
[6] = molecular target: T4, endogenous RIP1 (primary peritoneal macrophages) (mouse (endogenous in primary peritoneal macrophages)) (UniProt Q60855); experiment: as above
T4 sequence: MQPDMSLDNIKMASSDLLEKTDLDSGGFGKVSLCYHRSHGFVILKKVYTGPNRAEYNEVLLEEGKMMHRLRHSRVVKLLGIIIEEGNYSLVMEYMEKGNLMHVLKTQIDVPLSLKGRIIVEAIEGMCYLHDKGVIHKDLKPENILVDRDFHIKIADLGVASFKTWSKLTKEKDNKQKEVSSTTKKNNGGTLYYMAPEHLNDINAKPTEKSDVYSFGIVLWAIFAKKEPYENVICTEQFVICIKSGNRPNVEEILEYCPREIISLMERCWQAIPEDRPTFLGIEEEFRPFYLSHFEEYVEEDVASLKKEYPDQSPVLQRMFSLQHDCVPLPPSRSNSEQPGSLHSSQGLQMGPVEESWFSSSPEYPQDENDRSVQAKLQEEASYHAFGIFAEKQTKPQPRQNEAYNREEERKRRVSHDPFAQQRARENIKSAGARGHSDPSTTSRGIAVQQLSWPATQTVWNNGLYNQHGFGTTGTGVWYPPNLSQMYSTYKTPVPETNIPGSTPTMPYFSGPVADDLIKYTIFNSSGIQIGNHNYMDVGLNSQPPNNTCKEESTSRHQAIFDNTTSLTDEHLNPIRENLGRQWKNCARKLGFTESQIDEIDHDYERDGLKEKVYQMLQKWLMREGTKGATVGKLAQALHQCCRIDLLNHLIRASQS

[7] = molecular target: T5, endogenous IKKε (primary peritoneal macrophages) (mouse (endogenous in primary peritoneal macrophages)) (UniProt Q9R0T8); experiment: as above
T5 sequence: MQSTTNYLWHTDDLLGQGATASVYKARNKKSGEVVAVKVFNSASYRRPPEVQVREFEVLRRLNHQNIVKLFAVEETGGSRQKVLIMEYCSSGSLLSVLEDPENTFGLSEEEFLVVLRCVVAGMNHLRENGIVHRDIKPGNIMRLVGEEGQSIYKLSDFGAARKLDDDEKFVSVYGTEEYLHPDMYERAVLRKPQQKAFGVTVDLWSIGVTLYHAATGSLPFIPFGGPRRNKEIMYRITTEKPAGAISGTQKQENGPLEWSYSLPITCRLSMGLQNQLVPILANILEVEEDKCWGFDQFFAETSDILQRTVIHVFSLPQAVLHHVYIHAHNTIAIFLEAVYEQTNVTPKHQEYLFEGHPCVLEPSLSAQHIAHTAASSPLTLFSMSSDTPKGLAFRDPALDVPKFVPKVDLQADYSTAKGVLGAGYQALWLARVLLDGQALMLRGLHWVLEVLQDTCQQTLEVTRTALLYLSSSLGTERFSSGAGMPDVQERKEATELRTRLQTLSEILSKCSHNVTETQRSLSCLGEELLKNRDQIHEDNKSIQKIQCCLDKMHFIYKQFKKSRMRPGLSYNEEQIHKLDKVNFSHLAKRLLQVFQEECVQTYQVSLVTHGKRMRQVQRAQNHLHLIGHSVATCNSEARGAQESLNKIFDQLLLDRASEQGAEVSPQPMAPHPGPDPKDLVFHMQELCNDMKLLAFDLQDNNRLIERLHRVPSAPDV

[8] = molecular target: T6, RIP1 (Supplementary Fig S1, cells not stated) (UniProt Q60855); experiment: co-IP; immunoprecipitation assays with TGF-β1-induced Smad6 (Supplementary Fig S1); cells and antibodies not shown
T6 sequence: T4 sequence

[9] = molecular target: T7, IKKε/TBK1 complex (Supplementary Fig S1, cells not stated) (UniProt Q9R0T8); experiment: as above
T7 sequence 1: T5 sequence
T7 sequence 2: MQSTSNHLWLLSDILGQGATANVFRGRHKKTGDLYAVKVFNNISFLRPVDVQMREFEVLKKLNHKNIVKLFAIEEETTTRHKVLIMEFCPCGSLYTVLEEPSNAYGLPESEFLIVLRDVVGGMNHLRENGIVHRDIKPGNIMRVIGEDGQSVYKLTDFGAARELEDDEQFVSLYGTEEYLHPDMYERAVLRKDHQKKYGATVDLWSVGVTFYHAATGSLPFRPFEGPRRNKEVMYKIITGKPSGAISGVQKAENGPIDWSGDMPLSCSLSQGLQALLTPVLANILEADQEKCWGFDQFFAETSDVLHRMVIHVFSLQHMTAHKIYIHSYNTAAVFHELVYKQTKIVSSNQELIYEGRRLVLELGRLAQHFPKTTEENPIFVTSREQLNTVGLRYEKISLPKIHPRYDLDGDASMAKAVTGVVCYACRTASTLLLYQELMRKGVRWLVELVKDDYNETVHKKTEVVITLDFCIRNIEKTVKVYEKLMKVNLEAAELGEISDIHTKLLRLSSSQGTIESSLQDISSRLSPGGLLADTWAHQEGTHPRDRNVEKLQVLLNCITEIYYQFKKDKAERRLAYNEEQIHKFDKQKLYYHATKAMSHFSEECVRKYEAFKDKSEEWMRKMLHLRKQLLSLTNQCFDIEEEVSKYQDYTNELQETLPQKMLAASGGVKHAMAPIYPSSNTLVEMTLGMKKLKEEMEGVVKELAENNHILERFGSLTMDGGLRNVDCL

binding [4]: binds
B4: Myc-Smad6 MH2 (Smad6 MH2 domain, amino acids 332-496) (domain or fragment, UniProt O43541 332-496)
chain: CSVAYWEHRTRVGRLYAVYDQAVSIFYDLPQGSGFCLGQLNLEQRSESVRRTRSKIGFGILLSKEPDGVWAYNRGEHPIFVNSPTLDAPGGRALVVRKVPPGYSIKVFDFERSGLQHAPEPDAADGPYDPNSVRISFAKGWGPCYSRQFITSCPCWLEILLNNPR

binding [8]: binds
binding [9]: binds
B6: Pellino-1 (Supplementary Fig S1, cells not stated) (protein, UniProt Q8C669 1-418)
chain: T1 sequence

Second part, the binder before the results:

B1: TGF-β1-induced Smad6 (protein, UniProt O35182 1-495)
chain: MFRSKRSGLVRRLWRSRVVPDREEGSGGGGGVDEDGSLGSRAEPAPRAREGGGCSRSEVRSVAPRRPRDAVGPRGAAIAGRRRRTGGLPRPVSESGAGAGGSPLDVAEPGGPGWLPESDCETVTCCLFSERDAAGAPRDSGDPQARQSPEPEEGGGPRSREARSRLLLLEQELKTVTYSLLKRLKERSLDTLLEAVESRGGVPGGCVLVPRADLRLGGQPAPPQLLLGRLFRWPDLQHAVELKPLCGCHSFTAAADGPTVCCNPYHFSRLCGPESPPPPYSRLSPPDQYKPLDLSDSTLSYTETEATNSLITAPGEFSDASMSPDATKPSHWCSVAYWEHRTRVGRLYAVYDQAVSIFYDLPQGSGFCLGQLNLEQRSESVRRTRSKIGFGILLSKEPDGVWAYNRGEHPIFVNSPTLDAPGGRALVVRKVPPGYSIKVFDFERSGLLQHADAAHGPYDPHSVRISFAKGWGPCYSRQFITSCPCWLEILLNNHR
binding [1]: binds

B2: Smaducin-6 (palmitic acid-conjugated Smad6 amino acids 422-441) (peptide, UniProt O43541 422-441)
peptide: GRALVVRKVPPGYSIKVFDF
modifications: palmitic acid conjugated to the N-terminus
binding [2]: binds

B3: Myc-Smad6 (full-length Smad6) (protein, UniProt O43541 1-496)
chain: MFRSKRSGLVRRLWRSRVVPDREEGGSGGGGGGDEDGSLGSRAEPAPRAREGGGCGRSEVRPVAPRRPRDAVGQRGAQGAGRRRRAGGPPRPMSEPGAGAGSSLLDVAEPGGPGWLPESDCETVTCCLFSERDAAGAPRDASDPLAGAALEPAGGGRSREARSRLLLLEQELKTVTYSLLKRLKERSLDTLLEAVESRGGVPGGCVLVPRADLRLGGQPAPPQLLLGRLFRWPDLQHAVELKPLCGCHSFAAAADGPTVCCNPYHFSRLCGPESPPPPYSRLSPRDEYKPLDLSDSTLSYTETEATNSLITAPGEFSDASMSPDATKPSHWCSVAYWEHRTRVGRLYAVYDQAVSIFYDLPQGSGFCLGQLNLEQRSESVRRTRSKIGFGILLSKEPDGVWAYNRGEHPIFVNSPTLDAPGGRALVVRKVPPGYSIKVFDFERSGLQHAPEPDAADGPYDPNSVRISFAKGWGPCYSRQFITSCPCWLEILLNNPR
binding [3]: binds

B5: endogenous Pellino-1 (mouse cells) (protein, UniProt Q8C669 1-418)
chain: T1 sequence
binding [5]: binds
binding [6]: binds
binding [7]: binds
